Test system: Japanese Radish Alternaria Leaf Spot (Alternaria brassicicola)
Assay: Test of effect in preventing infection by Japanese radish Alternaria leaf spot
Format: in vivo
Details: Japanese radish (Wase-Shijunichi), foliar application 500 ppm, spore suspension sprayed, 1 day humid at 24° C. then 3 days in greenhouse
Description: Test of Effect in Preventing Infection by Japanese Radish Alternaria Leaf Spot (Alternaria brassicicola)
After inoculation, the plant was first allowed to stand under humid condition at 24° C. for 1 day, further, allowed to stand in a greenhouse for 3 days, then, the affected area was checked.

Nc1ncccc1-c1cn(Cc2ccc(OCc3ccccc3)cc2)nn1 [compound 2751]
lesion area on the treated plant as share of the lesion area on a non-treated plant: ≤ 30%
